# This is one part of the list. Antibody binding of pooled human sera (four to six donors per pool; dilution not stated) to peptides of the Trypanosoma cruzi antigen TSSA on microarrays. Quantile-normalised fluorescence in arbitrary units, mean of duplicate arrays; higher = more binding. No active / inactive call. The uninfected pools are read here as the healthy donors of the same country. The strongest signals lie near the top of the scale (about 60,000).
# Experiments:
# Test in all cases: antibody binding signal (normalised fluorescence) (arbitrary fluorescence units); higher = stronger serum antibody binding to peptide
# [1] = test system: pooled sera of chronic Chagas disease patients, Argentina
# Description: (§1)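 Microarray of 15-residue peptides over residues 30-55 of Trypanosoma cruzi TSSAII, each with 1 to 10 substitutions at naturally variable positions, probed with one serum pool per country.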
# [2] = test system: pooled sera of chronic Chagas disease patients, Bolivia
# Description: as §1
# [3] = test system: pooled sera of chronic Chagas disease patients, Brazil
# Description: as §1
# [4] = test system: pooled sera of chronic Chagas disease patients, Colombia
# Description: as §1
# [5] = test system: pooled sera of chronic Chagas disease patients, Mexico
# Description: as §1
# [6] = test system: pooled sera of chronic Chagas disease patients, USA
# Description: as §1
# [7] = test system: pooled sera of uninfected people, Argentina
# Description: as §1
# [8] = test system: pooled sera of uninfected people, Bolivia
# Description: as §1
# [9] = test system: pooled sera of uninfected people, Brazil
# Description: as §1
# [10] = test system: pooled sera of uninfected people, Colombia
# Description: as §1
# [11] = test system: pooled sera of uninfected people, Mexico
# Description: as §1
# [12] = test system: pooled sera of uninfected people, USA
# Description: as §1
Sequence,antibody binding signal [1],antibody binding signal [2],antibody binding signal [3],antibody binding signal [4],antibody binding signal [5],antibody binding signal [6],antibody binding signal [7],antibody binding signal [8],antibody binding signal [9],antibody binding signal [10],antibody binding signal [11],antibody binding signal [12]
NKPATGGAPSQPGAS,740,2330,30800,217,343,1550,758,1770,328,396,242,1380
SGTEKKPATGGAPSP,5720,1980,5460,2600,3190,3960,569,1520,377,185,468,1340
GKEKKTAAGETPSPP,1270,202,340,1950,1830,2540,115,98.6,82.8,185,96.4,138
SGKEKKPAAGETPSP,10100,1920,6600,4510,8760,6390,281,362,110,148,92.1,349
KENKTAAGGAPSPSG,185,216,209,2210,334,279,227,89.2,125,112,102,153
GTENKTAAGEAPSQS,26800,20300,11200,668,961,9420,270,493,240,247,158,135
SGKEKKTATGGTPSP,2250,413,1830,2920,2890,4490,218,83.6,125,158,114,127
PPSGTDKKTATGETP,3850,8980,17600,2810,13600,6220,400,270,237,452,721,187
SGKEKKAAAGEAPSP,3120,472,4710,2550,6040,10500,247,93,95.8,104,88.3,85.5
DKKTATGETPSQSGA,886,821,3830,282,391,6390,267,203,237,128,513,176
TENKAAAGETPSQSG,28800,465,15300,228,255,2500,81.9,189,138,135,267,110
ENKAATGETPSQSGA,4280,4690,27800,211,169,13600,137,218,191,116,189,146
TPPSGTDNKTATGGA,43400,42600,46800,1120,20700,11300,1480,682,1600,286,298,396
TEKKTATGGAPSPPG,2280,377,1160,5130,1180,2130,385,459,121,168,466,289
DNKAAAGGTPSQPGA,271,337,2290,3330,327,1210,318,425,2120,484,1110,135
KPAAGETPSQPGASS,2450,3930,39700,195,290,2440,167,1650,242,387,190,167
TDKKAATGGTPSQSG,1240,504,449,935,704,983,325,114,709,988,178,140
KKPATGGTPSQPGAS,328,582,1080,1030,255,250,528,502,614,220,256,360
GTDKKAAAGGTPSPP,309,235,230,5720,415,1440,128,201,1220,193,165,152
GTDNKAAAGGAPSPS,293,255,28700,3440,344,502,237,723,1610,287,170,235

# — the supplement of paper PMC10441789
